PubChem BioAssay AID1963576 (National Center for Advancing Translational Sciences (NCATS), 2024)
Among all 46,000 compounds or so, about 60 (0.1%) were called active. About 3% were inconclusive and are not listed. The call rests on the fitted dose curve; in most records, active means well fitted inhibition curve with a large enough effect; inconclusive means small, poorly fitted or top-dose-only effect; inactive means no such curve, though single readings can be large or run the other way. This is one part of the list.

test: Primary qHTS assay for Inhibitors of ovarian cancer metastasis using an organotypic tumor microenvironment (TME) model.; further: nearly all actives have a fitted effect of over 65% in size;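 on activity change, negative = inhibition: plate controls were DMSO wells for no effect and tomatine positive control wells for full effect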; details: SKOV3ip1-GFP adhesion/invasion on 3D omental model, fluorescence; series mostly up to 45.8 µM; activity change, negative = inhibition: at the top concentration
Summary of the method: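 qHTS, 4-pt dose (0.36-46 umol/L); SKOV3ip1-GFP, 1,200 cells/well, no FBS; primary omental fibroblast/mesothelial co-culture 48 h pre-grown; 2 h RT + 16 h 37 C; PBS wash, 4% PFA; GFP count 488/509 nm.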

Activity change, negative = inhibition, inactive:
Cc1cccc(C(=O)Nc2cccc(C(=O)OCc3cc(=O)n4nc(C(C)C)sc4n3)c2)c1 29.6%
CC(NC(=O)c1ccc(NC(=O)c2nsc3ccccc23)cc1)c1ccccc1 (stereo not given) -24.2%
Cn1nnnc1SCCNCc1ccc(OCc2ccccc2Cl)cc1 -10.6%
CC(=O)c1cccc(NC(=O)c2c(-c3ccccc3)c(-c3ccccc3)nn(C)c2=O)c1 -0.914%
Cc1ccccc1Nc1c(-c2cccc(N(C)C)c2)nc2ccc(Br)cn12 0.927%
CC(C)C1C(=O)Nc2ccc(S(=O)(=O)NCc3ccc(Cl)cc3)cc21 (stereo not given) -15.8%
COc1ccc(C2C(C(N)=O)=C(C)Nc3nc(CCCO)nn32)cc1 (stereo not given) 3.67%
Cc1ccc(CCNC(=O)c2cc(Nc3ccc(C)c(C)c3)nc3ccccc23)cc1 -2.32%
Cc1ccc(NC(=O)CSc2c3c(nc4ccccc24)CCCC3)cc1F -22.6%
COc1ccc(-n2nc(C(=O)Nc3ccc(Cl)cn3)c3c4ccccc4n(C)c3c2=O)cc1Cl 21.7%
COC(=O)c1c(NC(=O)Cc2coc3ccc(C)cc23)sc2c1CCC2 4.96%
COc1ccc(CCN2C(=O)c3[nH]nc(-c4ccccc4O)c3C2c2cccc(OC)c2)cc1 (stereo not given) -30.9%
Cc1cc(=O)n(CC(=O)Nc2ccc([N+](=O)[O-])cc2)c(-n2nc(C)cc2C)n1 8.47%
Cc1cc(C(F)(F)F)nn1-c1nc(-c2ccccc2)cc(C(F)(F)F)n1 9.9%
CCOC(=O)c1ccc(NC(=O)CC2C(=O)N(c3ccc(C)cc3)C(=O)N2C2CCCCC2)cc1 (stereo not given) -4.6%
CCc1nn(CC(=O)NC(C)CC)c(=O)c2cc3c(OC)cccc3n12 (stereo not given) 6.02%
CCOC(=O)c1ccccc1NS(=O)(=O)c1ccc(N2CCCCS2(=O)=O)cc1 0.615%
COc1cc(NC(=O)c2nn(-c3ccc(C)cc3)c(=O)c3c2c2ccccc2n3C)cc(OC)c1OC 2.39%
CN1CCN(c2oc(/C=C/c3ccc(F)cc3)nc2C#N)CC1 0.927%
Cc1cccc(-n2c(SCc3nc(-c4ccccc4C)no3)nnc2-c2ccccc2)c1 2.75%
COc1cc(C)ccc1OCCCn1c(-c2ccc(Cl)cc2)nc2ccccc2c1=O -3.82%
Cc1cccn2c(=O)c(C(=O)NCc3ccccc3Cl)c(O)nc12 -26.7%
COc1cccc(N2CCN(C(=O)c3cc4c(=O)n(Cc5ccccc5)ccc4nc3C)CC2)c1 14.8%
CCOc1ccc(-n2nc(CO)c(C(=O)NCc3cccnc3)n2)cc1 -4.8%
COc1ccc(-c2noc(-c3ccc(N4CCN(c5ccc(OC)cc5)CC4)c([N+](=O)[O-])c3)n2)cc1 9.02%
CCCCC(=O)Nc1cccc(-c2nc3ncccc3o2)c1C 2.35%
CCC(=O)N1c2ccccc2CC1C(=O)NCc1cccc(C)c1 (stereo not given) -6.39%
Cc1ccccc1-c1nc(CS(=O)CC(=O)N2CCN(c3cc(Cl)ccc3C)CC2)c(C)o1 (stereo not given) -7.43%
COc1ccc(OC)c(C(=O)c2c(N)c(-c3nc(-c4ccc(C)c(C)c4)cs3)c3ccccn23)c1 7.48%
CCOc1cccc(C2Nc3ccccc3-c3cc(C)nn32)c1O (stereo not given) 10.9%
COc1ccc(NC(=O)c2ccc3oc(=O)c(S(=O)(=O)c4ccc(C)cc4)cc3c2)cc1OC -8.66%
Cc1nn(S(=O)(=O)c2ccccc2)c(C)c1S(=O)(=O)N1CCC(C)CC1 39.2%
COc1ccc(Cn2nnc3c(=O)[nH]c(C4CCCN(C(=O)c5ccc(C)cc5)C4)nc32)cc1 (stereo not given) 4.8%
COc1ccc(CCNC(=O)Cn2c(=O)n(-c3ccc(C)c(C)c3)c(=O)c3c(C)c(C)sc32)cc1OC 0.567%
CCCCc1ccc(NC(=O)Cn2nnc3sc4c(c3c2=O)CCC(C)C4)cc1 (stereo not given) 14.1%
Cc1ccc(C(=O)c2oc3ccccc3c2NC(=O)Cc2coc3cc(C)ccc23)cc1 -1.51%
Cc1ccc(NC(=O)CSc2nc(C)c(Cc3ccccc3)c(=O)[nH]2)cc1C 2.44%
CCOC(=O)C1(C)C=C(Nc2ccc(Br)cc2)C(=O)N1c1ccccc1 (stereo not given) -2.77%
Cc1c(C(=O)N(Cc2ccc(N(C)C)cc2)C2CCS(=O)(=O)C2)oc2ccccc12 (stereo not given) -13.8%
COc1cc(C(=O)CC2(O)C(=O)N(Cc3ccccc3Cl)c3ccccc32)cc(OC)c1OC (stereo not given) -11%
Cc1ccc2sc(N(Cc3cccnc3)C(=O)CCOc3ccccc3)nc2c1C 7.89%
CCN(C(=O)C(=O)Nc1ccc2nc3n(c(=O)c2c1)CCCCC3)c1ccc(F)cc1 -28.1%
COc1ccc2c(CNCc3ccc(C)o3)c(C(=O)O)n(Cc3ccccc3C)c2c1 15.7%
CCN(c1ccccc1)C(CNS(=O)(=O)c1ccccc1)c1ccccc1 (stereo not given) 0.478%
Cc1nn(C(C)C(=O)NC2CCCCC2)c(=O)c2c1sc1ccccc12 (stereo not given) 7.39%
COc1ccc(CCNC(=O)Cc2c(C)c3c(cc(C)c4c(C)coc43)oc2=O)cc1OC -2.26%
Cc1ccc(OCC(=O)Nc2ccc(OCc3cc(=O)n4cccc(C)c4n3)cc2)cc1C 2.52%
COc1ccc(C2CC(=O)c3cc(-c4nc(-c5cccc([N+](=O)[O-])c5)cs4)c(=O)n(-c4ccc(C)c(C)c4)c3C2)cc1 (stereo not given) 9.83%
Cc1nnc(NC(=O)CSc2nc3c([nH]c4ccccc43)c(=O)n2-c2ccccc2)s1 4.53%
O=C(Nc1c(C(=O)N2CCN(c3ccc(F)cc3)CC2)oc2ccccc12)c1c(F)cccc1F -4.78%
COc1ccc(Cn2c(CNC(=O)c3ccc(N(C)C)cc3)nc3cccnc32)cc1 -2.42%
O=C(Cn1cc(SCc2ccc(C(F)(F)F)cc2)c2ccccc21)N1CCCCCC1 -3%
CCC1CCCCN1CCCNC(=O)CN1C(=O)c2cccnc2Oc2ccc(Cl)cc21 (stereo not given) 4.6%
CC(C)Oc1ccc(C(=O)Nc2ccc3c(c2)CCCN3C(=O)c2cccs2)cc1 -9.69%
CC(C)CSc1nnc(-c2ccccc2)c(-c2ccccc2)n1 -1.39%
CCOC(=O)c1ccc(N2CCN(c3ccccc3F)CC2)c(NC(=O)Nc2ccc(Cl)c(Cl)c2)c1 -2.72%
Cc1ccc(NC(=O)c2oc3ccc(S(=O)(=O)N4CCCCCC4)cc3c2C)cc1Cl -3.76%
Cc1ccc2oc(=O)c3cc(C(=O)Nc4ccc(F)cc4F)sc3c2c1 -21.1%
Fc1ccc(Nc2nc3ccccc3c3nncn23)c(Cl)c1 4.78%
Cc1cc(C)c2nc(N3CCCC(C(=O)NCc4cccc(Br)c4)C3)sc2c1 (stereo not given) 8.63%
COc1ccccc1OCCn1c(NC(=O)c2ccc(Cl)cc2)nc2ccccc21 0.159%
COc1ccc(-c2nc3ccccc3s2)cc1NC(=O)COc1ccccc1C -15.6%
CCc1ccc(NC(=O)C2CCC(CNS(=O)(=O)c3ccc4c(c3)CC(C)N4C(C)=O)CC2)cc1 (stereo not given) 4.52%
Cc1ccc(Cl)cc1NC(=O)CN1C(=O)c2cccc3cccc1c23 4.75%
CCCN1C(=O)c2[nH]nc(-c3ccccc3O)c2C1c1ccc(OCc2ccccc2)c(OCC)c1 (stereo not given) -0.411%
Cc1nn(CC(=O)NCc2cccc(Br)c2)c(=O)c2c1sc1ccccc12 -10.6%
CN(C)c1ccc(CNC(=O)CN2C(=O)c3cccnc3Oc3ccc(Cl)cc32)cc1 -1.31%
Cc1oc2ccc(O)c(CN3CCN(Cc4ccccc4)CC3)c2c1C(=O)Nc1ccccc1 2.82%
O=S(=O)(NCCc1nnc2ccc(SCc3ccc(C(F)(F)F)cc3)nn12)c1ccccc1 -5.17%
Cc1cc(C)c(S(=O)(=O)NCCc2cc3cc(C)c(C)cc3[nH]c2=O)c(C)c1 5.65%
COCCNC(=O)C1CCC(CNS(=O)(=O)c2ccc3c(c2)CC(C)N3C(C)=O)CC1 (stereo not given) 1.53%
COc1ccc(N(CC(=O)NCc2ccccc2Cl)S(=O)(=O)c2c(C)[nH]c(=O)[nH]c2=O)cc1 -11.7%
O=C(C1COc2ccccc2O1)N1CCN(c2nc3c(F)cccc3s2)CC1 (stereo not given) -0.563%
CC(C)C(=O)Nc1nnc(S(=O)(=O)N2CCCCCC2)s1 13.9%
Cc1ccc(Nc2nc3ccc(C)cc3nc2-n2nc(C)cc2C)c(C)c1 8.69%
COc1cccc(C(c2sc3nc(-c4ccco4)nn3c2O)N2CCOCC2)c1 (stereo not given) 0.609%
COc1ccc(NC(=O)CSc2nnc(-c3ccc(OC)cc3)s2)cc1 3.58%
Cc1c(C(=O)Nc2cccc(F)c2)oc2c1-c1nn(Cc3c(F)cccc3Cl)cc1CC2 -2.74%
COc1cc(C(CC(=O)Nc2ccc(Br)cn2)N2Cc3ccccc3C2=O)cc(OC)c1OC (stereo not given) 4.9%

outcome, inactive:
O=C(c1ccccc1Cl)N(Cc1ccco1)Cc1ccco1
CN(Cc1ccccc1)c1ccc(-c2nc(-c3ccco3)no2)cc1[N+](=O)[O-]
Cc1[nH]c2ccccc2c1C(c1ccccc1)c1cccs1 (stereo not given)
Cc1ccccc1NC(=O)Cn1c(=O)n(CCc2ccccc2)c(=O)c2sc3ccccc3c21
CCN(CC)CCCNC(=O)Cn1nc(C)n2c(cc3sccc32)c1=O
Clc1cccc(CSc2nncn3c2cc2sccc23)c1
CCc1ccccc1NC(=O)Cn1ccn(-c2cc(C)cc(C)c2)c(=O)c1=O
CCn1c(=NC(=O)c2ccc3c(c2)OCCO3)sc2c(C)ccc(OC)c21
COc1ccc(OC)c(C2NC(=O)NC(C)=C2C(=O)Nc2cc(C)cc(C)c2)c1 (stereo not given)
O=C(c1ccc2c(c1)N(Cc1ccccc1)C(=O)c1ccccc1S2(=O)=O)N1CCN(c2ccccc2)CC1
COc1ccc(CCNC(=O)c2ccc3c(c2)CCN3S(C)(=O)=O)cc1
Cc1ccc(-c2nnc(Nc3ccc(Br)cc3)c3ccccc23)cc1S(=O)(=O)N1CCN(C)CC1
COc1ccc(CC(=O)NC2CC(=O)N(c3cccc(F)c3)C2)cc1 (stereo not given)
CCC(Sc1nc2ccccc2c2nc(CCn3cncc3C)nn12)C(=O)Nc1cccc(OC)c1 (stereo not given)
COc1ccc(CCNC(=O)c2ccc(Cn3c(=O)c4ccccc4n(Cc4cc(C)ccc4C)c3=O)cc2)cc1OC
COc1ccc(C)c2sc(N(Cc3cccnc3)C(C)=O)nc12
